From patent US6001810A, “Methods for treating retroviral infection” (Eli Lilly and Company, priority 1990, dated 1999)
At least one peptide structure holds a part that was inferred or is arguable (an end, a ring closure or a residue). Starred links: 1 amine or outer side, 2 acyl side, 3 side chain; linkers in the order of their positions; H or OH if unused. Non-standard residues stand in square brackets, D forms with d. Residues, ends and D or L forms follow the SMILES beside them. ACHPA = O=C(C[C@H](O)[C@H](CC1CCCCC1)N[*:1])[*:2]; Phe(4-NH2) = Nc1ccc(C[C@H](N)C(=O)O)cc1; Sta = CC(C)C[C@H](N)[C@@H](O)CC(=O)O

Target: T1, HIV-1 protease (Human immunodeficiency virus type 1 group M subtype B, UniProt P04585)
T1 construct: a gene encoding the mature HIV-1 protease of 99 amino acids; last 58 codons of bovine growth hormone, fused behind the first 144 amino acids of reverse transcriptase in the expressed precursor (C); made in house; host or cells: Escherichia coli K12 L507/pHP10D (NRRL B-18560), crude lysate
Experiment: HIV-1 protease inhibition assay (gag precursor maturation, Western blot)
Format: biochemical
Conditions: for Relative Inhibition of HIV-1 Protease Activity (10^-4 M): peptide concentration added 10^-4 M; for Relative Inhibition of HIV-1 Protease Activity (10^-5 M): peptide concentration added 10^-5 M; for Relative Inhibition of HIV-1 Protease Activity (10^-6 M): peptide concentration added 10^-6 M
Method: A 100 μl control reaction was established containing 10 to 20 μl of crude protease, about 2 μl of the gag supernatant and final concentrations of 50 mM MES Buffer (pH 5.5), 1 mM DTT and 25 mM NaCl. Inhibition assays were performed by pre-incubating the crude protease with an inhibitory compound at room temperature for about 30 minutes before adding the gag supernatant to the reaction. Both the control and the experimental reactions were incubated from three to sixteen hours at 37° C. The reactions were then electrophoresed and blotted onto nitrocellulose filters. Monoclonal antibodies which recognize epitopes on p24 and p17 viral proteins were contacted with the filter then visualized using standard biotinylation or radionuclear techniques. Compounds which prevented the maturation of the gag polypeptide into mature viral proteins p24 and p17 were then ranked according to their HIV-1 protease inhibitory activity.
About 10 to 20 μl of the crude protease lysate was mixed with about 2 μl of the gag supernatant. The mixture was then brought to a total volume of 100 μl by the addition of distilled water, MES buffer (2-[N-Morpholino]ethanesulfonic acid) (pH 5.5 to a total concentration of 50 mM), DTT (dithiolthreitol) (to a total concentration of 1 mM) and NaCl (to a total concentration of 25 mM). This reaction mixture was mixed gently then incubated from 3 hours to overnight at 37° C.
Next, about 25 μl of the reaction was mixed with loading buffer and subjected to polyacrylamide gel electrophoresis on a 12.5% Laemmli gel under reducing conditions. The proteins were transferred onto a nitrocellulose filter using standard "Western Blot" electrophoresis at 500 mAmps for 35 minutes at room temperature. The filter was air-dried, then non-specific immunoreaction was blocked by washing the filter for 30 minutes at 4° C. in a solution of 3% non-fat dry milk powder in phosphate buffered saline (PBS).
Monoclonal antibodies against p17 and/or p24 (available from DuPont, Wilmington, Del.) were added to about 40 ml of the 3% milk/PBS solution to a final concentration of 2 μg/ml. The nitrocellulose filter was added to the antisera solution and slowly rocked for 2 hours at 4° C. The filter then was removed and washed 5 times with PBS, then the maturation of the gag gene was determined by reaction with I^125 -labeled protein A or by reaction with biotinylated anti-mouse IgG antibodies (Vecta Stain®).
To run the I^125 -labeled protein A reaction, about 10 μCi of I^125 -labeled protein A was added to 100 ml of the 3% milk/PBS solution. The filter was rocked in this solution for 2 hours at 4° C., washed three times with PBS, then two times with PBS and 0.1% Tween 20. The filter was then air-dried and exposed to x-ray film for autoradiography.
The Vecta Stain® (Vector Laboratories, Burlingome, Calif.) procedure was performed according to the manufacturer's recommendations. Four drops of the biotinylated IgG was added to 40 mls of the 3% Milk/PBS solution, then the filter was rocked in this solution for 60 minutes at 4° C. The filter was washed five times with PBS, then rocked for 30 to 60 minutes at 4° C. in Reagent ABC. Reagent ABC was prepared by adding 4 drops of Reagent A (Avidin DH) and 4 drops of Reagent B (biotinylated peroxidase) to 20 ml of 3% Milk/PBS. The filter was then washed five times with PBS, then the filter was developed by washing it for 5 to 10 minutes in 10 ml of PBS containing 0.02% H2 O2 and 10 ml of 4-chloro-1 naphthol. When the color was fully developed, the filter was washed with distilled water and air-dried.
Following the procedure, it is simple to determine the activity of the HIV-1 protease encoded on plasmid pHP10D and produced in E. coli cells. When the protease is fully active, the gag protein, encoded by plasmid pHGAG and produced in E. coli, is cleaved from the precursor gag form into mature p24 and p17 proteins, which are readily measured by their presence relative to the precursor protein. […]

Compound	Inhibitory activity against the HIV protease (in words)	Potency relative to the R,S-diastereomer (P-28) (compared with P-28) [times]	Relative Inhibition of HIV-1 Protease Activity (10^-4 M)	Relative Inhibition of HIV-1 Protease Activity (10^-5 M)	Relative Inhibition of HIV-1 Protease Activity (10^-6 M)
COc1ccc(C[C@H](NC(C)=O)C(=O)N[C@@H](Cc2ccccc2)C(=O)N[C@H](C(=O)N[C@@H](CC(C)C)[C@@H](O)CC(=O)N[C@@H](CC(C)C)C(=O)N[C@@H](Cc2ccccc2)C(=O)N[C@@H](Cc2ccc(O)cc2)C(=O)N[C@@H](CC(C)C)C(N)=O)C(C)C)cc1 [Ac-YOM-Phe-Val-Statine-Leu-Phe-Tyr-Lue--NH2] (Ac-Y(Me)FV[Sta]LFYL-NH2)	totally inactive				
CC(C)C[C@H](NC(=O)C[C@H](O)[C@H](CC(C)C)NC(=O)[C@@H](NC(=O)[C@H](Cc1ccccc1)NC(=O)[C@@H]1CCCN1C(=O)[C@H](Cc1ccc(N)cc1)NC(=O)[C@@H]1CCCN1)C(C)C)C(=O)N[C@@H](Cc1ccccc1)C(=O)N[C@@H](Cc1ccc(N)cc1)C(N)=O [P-1, H-Pro paF Pro Phe Val Statine Leu Phe paF NH2] (H-P[Phe(4-NH2)]PFV[Sta]LF[Phe(4-NH2)]-NH2)		20	4+	4+	
CC(C)C[C@H](NC(=O)C[C@H](O)[C@H](CC1CCCCC1)NC(=O)[C@@H](NC(=O)[C@H](Cc1ccccc1)NC(=O)[C@@H]1CCCN1C(=O)[C@H](Cc1c[nH]cn1)NC(=O)[C@@H]1CCCN1)C(C)C)C(=O)N[C@@H](Cc1ccccc1)C(=O)N[C@@H](Cc1ccc(N)cc1)C(N)=O [P-2, H-Pro His Pro Phe Val ACHPA Leu Phe paF NH2] (H-PHPFV[ACHPA]LF[Phe(4-NH2)]-NH2)			4+	3+	1+
CC(C)C[C@H](NC(=O)C[C@H](O)[C@H](CC1CCCCC1)NC(=O)[C@@H](NC(=O)[C@H](Cc1ccccc1)NC(=O)[C@@H]1CCCN1C(=O)[C@H](Cc1ccc(N)cc1)NC(=O)[C@@H]1CCCN1)C(C)C)C(=O)N[C@@H](Cc1ccccc1)C(=O)N[C@@H](Cc1ccc(N)cc1)C(N)=O [P-3, H-Pro paF Pro Phe Val ACHPA Leu Phe paF NH2] (H-P[Phe(4-NH2)]PFV[ACHPA]LF[Phe(4-NH2)]-NH2)			2+	1+	-
CC(=O)N[C@@H](Cc1ccc(N)cc1)C(=O)N1CCC[C@H]1C(=O)N[C@@H](Cc1ccccc1)C(=O)N[C@H](C(=O)N[C@@H](CC1CCCCC1)[C@@H](O)CC(=O)N[C@@H](CC(C)C)C(=O)N[C@@H](Cc1ccccc1)C(=O)N[C@@H](Cc1ccc(N)cc1)C(N)=O)C(C)C [P-4, Ac paF Pro Phe Val ACHPA Leu Phe paF NH2] (Ac-[Phe(4-NH2)]PFV[ACHPA]LF[Phe(4-NH2)]-NH2)			3+	2+	-
CC(=O)N[C@@H](Cc1c[nH]cn1)C(=O)N1CCC[C@H]1C(=O)N[C@@H](Cc1ccccc1)C(=O)N[C@H](C(=O)N[C@@H](CC(C)C)[C@@H](O)CC(=O)N[C@@H](CC(C)C)C(=O)N[C@@H](Cc1c[nH]cn1)C(N)=O)C(C)C [P-6, Ac His Pro Phe Val Statine Leu His NH2] (Ac-HPFV[Sta]LH-NH2)			-	-	-
CC(C)C[C@H](NC(=O)C[C@H](O)[C@H](CC(C)C)NC(=O)[C@H](Cc1c[nH]cn1)NC(=O)[C@H](Cc1ccccc1)NC(=O)[C@@H]1CCCN1C(=O)[C@H](Cc1c[nH]cn1)NC(=O)[C@@H]1CCCN1)C(=O)N[C@@H](Cc1ccccc1)C(N)=O [P-11, H-Pro His Pro Phe His Statine Leu Phe NH2] (H-PHPFH[Sta]LF-NH2)			-	-	-
CC(=O)N[C@@H](Cc1ccc(N)cc1)C(=O)N1CCC[C@H]1C(=O)N[C@@H](Cc1ccc(N)cc1)C(=O)N[C@H](C(=O)N[C@@H](CC(C)C)[C@@H](O)CC(=O)N[C@@H](CC(C)C)C(=O)N[C@@H](Cc1ccccc1)C(=O)N[C@@H](Cc1ccc(N)cc1)C(N)=O)C(C)C [P-12, Ac paF Pro paF Val Statine Leu Phe paF NH2] (Ac-[Phe(4-NH2)]P[Phe(4-NH2)]V[Sta]LF[Phe(4-NH2)]-NH2)			3+	2+	1+
COc1ccc(C[C@H](NC(=O)[C@@H]2CCCN2C(=O)[C@H](Cc2ccc(N)cc2)NC(C)=O)C(=O)N[C@H](C(=O)N[C@@H](CC(C)C)[C@@H](O)CC(=O)N[C@@H](CC(C)C)C(=O)N[C@@H](Cc2ccccc2)C(=O)N[C@@H](Cc2ccc(N)cc2)C(N)=O)C(C)C)cc1 [P-13, Ac paF Pro YOM Val Statine Leu Phe paF NH2] (Ac-[Phe(4-NH2)]PY(Me)V[Sta]LF[Phe(4-NH2)]-NH2)			4+	2+	1+
CC(=O)N[C@@H](Cc1ccc(N)cc1)C(=O)N1CCC[C@H]1C(=O)N[C@@H](Cc1ccccc1)C(=O)N[C@H](C(=O)N[C@@H](CC(C)C)[C@@H](O)CC(=O)N[C@@H](CC(C)C)C(=O)N[C@@H](Cc1ccccc1)C(=O)N[C@@H](Cc1ccc(N)cc1)C(N)=O)C(C)C [P-14, Ac paF Pro Phe Val Statine Leu Phe paF NH2] (Ac-[Phe(4-NH2)]PFV[Sta]LF[Phe(4-NH2)]-NH2)			3+	1+	-
CC(C)C[C@H](NC(=O)C[C@H](O)[C@H](CC(C)C)NC(=O)[C@@H](NC(=O)[C@H](Cc1ccccc1)NC(=O)[C@@H]1CCCN1C(=O)[C@@H](N)Cc1c[nH]cn1)C(C)C)C(=O)N[C@@H](Cc1ccccc1)C(=O)N[C@@H](Cc1ccc(N)cc1)C(N)=O [P-15, H-His Pro Phe Val Statine Leu Phe paF NH2] (H-HPFV[Sta]LF[Phe(4-NH2)]-NH2)			4+	4+	
CC(=O)N[C@@H](Cc1c[nH]cn1)C(=O)N1CCC[C@H]1C(=O)N[C@@H](Cc1ccccc1)C(=O)N[C@H](C(=O)N[C@@H](CC1CCCCC1)[C@@H](O)CC(=O)N[C@@H](CC(C)C)C(=O)N[C@@H](Cc1ccccc1)C(=O)N[C@@H](Cc1c[nH]cn1)C(N)=O)C(C)C [P-16, Ac His Pro Phe Val ACHPA Leu Phe His NH2] (Ac-HPFV[ACHPA]LFH-NH2)			2+	1+	-
CC(=O)N[C@@H](Cc1c[nH]cn1)C(=O)N1CCC[C@H]1C(=O)N[C@@H](Cc1ccccc1)C(=O)N[C@H](C(=O)N[C@@H](CC1CCCCC1)[C@@H](O)CC(=O)N[C@@H](CC(C)C)C(=O)N[C@@H](Cc1ccccc1)C(=O)N[C@@H](Cc1ccc(N)cc1)C(N)=O)C(C)C [P-17, Ac His Pro Phe Val ACHPA Leu Phe paF NH2] (Ac-HPFV[ACHPA]LF[Phe(4-NH2)]-NH2)			2+	1+	-
